In PMC13572498, “Enhancing iNKT cell immunotherapy through the integration of optimized CAR endodomains and iNKT engagers” (Nature Communications, 2026):

Legend:
[1] = biological target: T1, soluble biotinylated BCMA (recombinant BCMA-biotin) (UniProt Q02223 1-54, biotin); assay: cell-based or functional assay
T1 sequence (looked up): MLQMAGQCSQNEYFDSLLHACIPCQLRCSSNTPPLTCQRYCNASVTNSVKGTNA

[2] = biological target: T1, soluble biotinylated BCMA (recombinant …); assay: SPR; Biacore S200; soluble biotinylated BCMA immobilised on Series S SA sensorchip (3500 RU); biNTe injected, single-cycle kinetics, 4-point series 0.1, 1, 10, 200 nM, 400 s injections, 400 s dissociation; PBS-P+; conditions: both partners purified

EC50 measured against MM1.S cells in the presence of iNKT [1]: 0.0062 nM
Kd [2]: 34.5 nM
B1: monovalent BCMA bispecific iNKT engager (heterodimeric, monovalent scFv-Fc human IgG1, LALA, 'key-in-hole'; anti-BCMA C11D5.3 scFv-Fc + anti-TCRVβ11 C21 … (bispecific antibody)
chain 1: DIVLTQSPPSLAMSLGKRATISCRASESVTILGSHLIHWYQQKPGQPPTLLIQLASNVQTGVPARFSGSGSRTDFTLTIDPVEEDDVAVYYCLQSRTIPRTFGGGTKLEIKGGGGSGGGGSGGGGSQIQLVQSGPELKKPGETVKISCKASGYTFTDYSINWVKRAPGKGLKWMGWINTETREPAYAYDFRGRFAFSLETSASTAYLQINNLKYEDTATYFCALDYSYAMDYWGQGTSVTVSSGGGGSGGGGSGGGGS[no letters for human IgG1 Fc with changes]
chain 2: DIKMTQSPSSMYASLGERVTITCKASQDINSYLSWFQQKAGKSPKTLIYRANRLVDGVPSRFSGSGSGQDYSLTISSLEYEDMGIYYCLQYDEFPFTFGGGTRLEIKGGGGSGGGGSGGGGSQVQLQQSGPEVVRPGVSVKISCKGSGYRFTDSAMHWVKQSHAKSLEWIGVISSYNGNTNYNQKFKGKATMTVDKSSSTAYMELARMTSEDSAIYYCARSRDAMDYWGQGTSVTVSSGGGGSGGGGSGGGGS[no letters for human IgG1 Fc with L234A L235A S354C Y407T (EU numbers)]
notes: anti-BCMA (C11D5.3) scFv (VL-(G4S)3-VH) - (G4S)3 - hinge-CH2-CH3 of human IgG1 with LALA and 'key-in-hole' change; left out here; anti-TCRVβ11 (C21) scFv (VL-(G4S)3-VH) - (G4S)3 - hinge-CH2-CH3 of human IgG1 with LALA and 'key-in-hole' change; Heterodimeric scFv-Fc; also called monovalent biNTe; monovalent engager; source: 293T cells, transiently co-transfected, purified from culture supernatant …
